Measurements published in the supplement of paper PMC12217912.
This is one part of the list. Sequences were assembled here from the parent chain. Values near 0.05 are background.

B1: TEV protease; numbered along this chain (parent)
chain: MGESLFKGPRDYNPISSSICHLTNESDGHTTSLYGIGFGPFIITNKHLFRRNNGTLVVQSLHGVFKVKDTTTLQQHLVDGRDMIIIRMPKDFPPFPQKLKFREPQREERICLVTTNFQTKSMSSMVSDTSCTFPSGDGIFWKHWIQTKDGQCGSPLVSTRDGFIVGIHSASNFTNTNNYFTSVPKNFMELLTNQEAQQWVSGWRLNADSVLWGGHKVFMVKPEEPFQPVKEATQL

Variants of: B1
Experiment: raw area under fraction-flipped curve 0-4 h after induction (AUC4h, not background-subtracted), DNA-recorder readout of cleavage of the substrate (dimensionless); higher = more cleavage of the substrate by the protease variant
Conditions: temperature: 34 °C; time window: 0-4 h after rhamnose induction
Experimental: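 In vivo DNA recorder in E. coli TOP10(DE3) ΔrhaA at 34 °C. Each TEVp single-site mutant (parent TEVp 0) is paired with a single-site variant of the 7-mer TEVs (canonical ENLYFQ|S). The substrate sits between flexible linkers in a Bxb1-sfGFP-TEVs-SsrA fusion, so cleavage stabilises Bxb1 and speeds flipping of a recombination array, read by NGS. The value is the raw area under the fraction-flipped curve over 0-4 h after rhamnose induction (AUC4h), with ≥20 reads per time point. It is not background-subtracted; inactive controls average about 0.047.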
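Further: Bxb1 expression induced with 0.2% (w/v) L-rhamnose at OD600 near 0.5, cultures sampled hourly, flipped fraction per protease–substrate barcode pair counted by paired-end Illumina sequencing.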

Variant	area with substrate ENAYFQS	area with substrate ENGYFQS	area with substrate ENMYFQS	area with substrate ENQYFQS	area with substrate ENTYFQS	area with substrate ENVYFQS	area with substrate ENCYFQS	area with substrate ENDYFQS	area with substrate ENEYFQS	area with substrate ENFYFQS	area with substrate ENHYFQS	area with substrate ENIYFQS	area with substrate ENNYFQS	area with substrate ENRYFQS	area with substrate ENSYFQS	area with substrate ENKYFQS	area with substrate ENPYFQS	area with substrate ENYYFQS	area with substrate ENWYFQS
MGESLFKGPRDYNPISSSICHLTNESDGFTTSLYGIGFGPFIITNKHLFRRNNGTLVVQSLHGVFKVKDTTTLQQHLVDGRDMIIIRMPKDFPPFPQKLKFREPQREERICLVTTNFQTKSMSSMVSDTSCTFPSGDGIFWKHWIQTKDGQCGSPLVSTRDGFIVGIHSASNFTNTNNYFTSVPKNFMELLTNQEAQQWVSGWRLNADSVLWGGHKVFMVKPEEPFQPVKEATQL [H29F]	0.0885	0.0605	0.0822	0.0674	0.074	0.0842	–	–	–	–	–	–	–	–	–	–	–	–	–
MGESLFKGPRDYNPISSSICFLTNESDGHTTSLYGIGFGPFIITNKHLFRRNNGTLVVQSLHGVFKVKDTTTLQQHLVDGRDMIIIRMPKDFPPFPQKLKFREPQREERICLVTTNFQTKSMSSMVSDTSCTFPSGDGIFWKHWIQTKDGQCGSPLVSTRDGFIVGIHSASNFTNTNNYFTSVPKNFMELLTNQEAQQWVSGWRLNADSVLWGGHKVFMVKPEEPFQPVKEATQL [H21F]	0.0575	0.0627	0.0662	0.0593	0.0516	–	0.0672	0.0528	0.0684	0.0664	0.0638	0.0994	0.0536	0.0705	0.0263	–	–	–	–
MGESLFKGPRDYNPISSSICILTNESDGHTTSLYGIGFGPFIITNKHLFRRNNGTLVVQSLHGVFKVKDTTTLQQHLVDGRDMIIIRMPKDFPPFPQKLKFREPQREERICLVTTNFQTKSMSSMVSDTSCTFPSGDGIFWKHWIQTKDGQCGSPLVSTRDGFIVGIHSASNFTNTNNYFTSVPKNFMELLTNQEAQQWVSGWRLNADSVLWGGHKVFMVKPEEPFQPVKEATQL [H21I]	0.0473	0.0627	0.071	0.0584	–	0.0652	0.0623	0.0645	0.0641	0.0602	0.0581	0.0771	0.0577	0.0607	0.0698	0.053	0.0544	0.0524	–
MGESLFKGPRDYNPISSSICTLTNESDGHTTSLYGIGFGPFIITNKHLFRRNNGTLVVQSLHGVFKVKDTTTLQQHLVDGRDMIIIRMPKDFPPFPQKLKFREPQREERICLVTTNFQTKSMSSMVSDTSCTFPSGDGIFWKHWIQTKDGQCGSPLVSTRDGFIVGIHSASNFTNTNNYFTSVPKNFMELLTNQEAQQWVSGWRLNADSVLWGGHKVFMVKPEEPFQPVKEATQL [H21T]	0.0613	0.0665	0.0783	0.0608	0.0663	0.0627	0.068	0.0683	0.0536	0.0733	0.0777	–	0.0464	0.0575	0.0589	0.0545	0.0773	0.0672	–
MGESLFKGPRDYNPISSSICHLTNESDGHTTCLYGIGFGPFIITNKHLFRRNNGTLVVQSLHGVFKVKDTTTLQQHLVDGRDMIIIRMPKDFPPFPQKLKFREPQREERICLVTTNFQTKSMSSMVSDTSCTFPSGDGIFWKHWIQTKDGQCGSPLVSTRDGFIVGIHSASNFTNTNNYFTSVPKNFMELLTNQEAQQWVSGWRLNADSVLWGGHKVFMVKPEEPFQPVKEATQL [S32C]	0.0659	0.0639	0.0644	0.0622	0.0638	0.0815	0.0657	0.0532	0.0567	0.0738	0.0505	0.0816	0.0511	0.0463	0.0582	0.0478	–	0.0511	–
MGESLFKGPRDYNPISSSICHLTNESDGHTTFLYGIGFGPFIITNKHLFRRNNGTLVVQSLHGVFKVKDTTTLQQHLVDGRDMIIIRMPKDFPPFPQKLKFREPQREERICLVTTNFQTKSMSSMVSDTSCTFPSGDGIFWKHWIQTKDGQCGSPLVSTRDGFIVGIHSASNFTNTNNYFTSVPKNFMELLTNQEAQQWVSGWRLNADSVLWGGHKVFMVKPEEPFQPVKEATQL [S32F]	0.0575	0.0716	–	0.0551	0.0557	0.0708	–	0.0531	0.0636	0.0587	0.0597	0.101	–	0.0396	0.0617	0.067	0.0503	–	0.0587
MGESLFKGPRDYNPISSSICHLWNESDGHTTSLYGIGFGPFIITNKHLFRRNNGTLVVQSLHGVFKVKDTTTLQQHLVDGRDMIIIRMPKDFPPFPQKLKFREPQREERICLVTTNFQTKSMSSMVSDTSCTFPSGDGIFWKHWIQTKDGQCGSPLVSTRDGFIVGIHSASNFTNTNNYFTSVPKNFMELLTNQEAQQWVSGWRLNADSVLWGGHKVFMVKPEEPFQPVKEATQL [T23W]	0.0599	0.0644	0.0783	0.0489	0.0569	0.0729	0.06	0.0586	0.0654	0.0628	0.0566	0.0448	0.0655	0.0636	0.0672	0.063	0.059	0.0616	0.0529
MGESLFKGPRDYNPISSSICHLGNESDGHTTSLYGIGFGPFIITNKHLFRRNNGTLVVQSLHGVFKVKDTTTLQQHLVDGRDMIIIRMPKDFPPFPQKLKFREPQREERICLVTTNFQTKSMSSMVSDTSCTFPSGDGIFWKHWIQTKDGQCGSPLVSTRDGFIVGIHSASNFTNTNNYFTSVPKNFMELLTNQEAQQWVSGWRLNADSVLWGGHKVFMVKPEEPFQPVKEATQL [T23G]	0.0367	0.0705	–	0.0557	0.0556	0.0775	0.05	0.0594	0.0575	0.0533	0.0602	0.0835	0.0663	0.0632	0.0557	–	0.0477	–	0.0511
MGESLFKGPRDYNPISSSICHLTNESDGHTQSLYGIGFGPFIITNKHLFRRNNGTLVVQSLHGVFKVKDTTTLQQHLVDGRDMIIIRMPKDFPPFPQKLKFREPQREERICLVTTNFQTKSMSSMVSDTSCTFPSGDGIFWKHWIQTKDGQCGSPLVSTRDGFIVGIHSASNFTNTNNYFTSVPKNFMELLTNQEAQQWVSGWRLNADSVLWGGHKVFMVKPEEPFQPVKEATQL [T31Q]	0.0581	0.0566	0.0555	0.0808	0.0624	0.0679	0.0724	0.0852	–	0.0657	0.067	–	–	–	0.0652	–	–	–	0.0563
MGESLFKGPRDYNPISSSICHLTFESDGHTTSLYGIGFGPFIITNKHLFRRNNGTLVVQSLHGVFKVKDTTTLQQHLVDGRDMIIIRMPKDFPPFPQKLKFREPQREERICLVTTNFQTKSMSSMVSDTSCTFPSGDGIFWKHWIQTKDGQCGSPLVSTRDGFIVGIHSASNFTNTNNYFTSVPKNFMELLTNQEAQQWVSGWRLNADSVLWGGHKVFMVKPEEPFQPVKEATQL [N24F]	0.0649	0.0493	–	0.0681	0.0317	–	0.0636	0.0632	0.0617	0.0728	0.0586	–	–	–	0.0633	–	–	–	0.0642
MGESLFKGPRDYNPISSSICHLTPESDGHTTSLYGIGFGPFIITNKHLFRRNNGTLVVQSLHGVFKVKDTTTLQQHLVDGRDMIIIRMPKDFPPFPQKLKFREPQREERICLVTTNFQTKSMSSMVSDTSCTFPSGDGIFWKHWIQTKDGQCGSPLVSTRDGFIVGIHSASNFTNTNNYFTSVPKNFMELLTNQEAQQWVSGWRLNADSVLWGGHKVFMVKPEEPFQPVKEATQL [N24P]	0.0406	0.0677	0.0493	0.0534	0.066	0.0533	0.055	0.06	0.0572	0.0466	0.0545	0.0532	0.0588	0.05	0.0592	0.0709	0.0528	0.0517	–
MGESLFKGPRDYNPISSSICHLTSESDGHTTSLYGIGFGPFIITNKHLFRRNNGTLVVQSLHGVFKVKDTTTLQQHLVDGRDMIIIRMPKDFPPFPQKLKFREPQREERICLVTTNFQTKSMSSMVSDTSCTFPSGDGIFWKHWIQTKDGQCGSPLVSTRDGFIVGIHSASNFTNTNNYFTSVPKNFMELLTNQEAQQWVSGWRLNADSVLWGGHKVFMVKPEEPFQPVKEATQL [N24S]	0.0512	0.0495	0.0783	0.074	0.0612	0.0677	–	0.0556	0.0621	–	0.0904	–	0.0688	–	0.0966	0.054	0.0301	0.0481	0.0636
MGESLFKGPRDYNPISSSICHLTAESDGHTTSLYGIGFGPFIITNKHLFRRNNGTLVVQSLHGVFKVKDTTTLQQHLVDGRDMIIIRMPKDFPPFPQKLKFREPQREERICLVTTNFQTKSMSSMVSDTSCTFPSGDGIFWKHWIQTKDGQCGSPLVSTRDGFIVGIHSASNFTNTNNYFTSVPKNFMELLTNQEAQQWVSGWRLNADSVLWGGHKVFMVKPEEPFQPVKEATQL [N24A]	0.0814	0.0532	0.0736	0.0594	0.0485	0.0681	0.0599	0.0593	0.0609	0.0519	0.059	–	0.0592	0.0552	0.0644	0.0656	0.0636	–	–
MGESLFKGPRDYNPISSSICHLTVESDGHTTSLYGIGFGPFIITNKHLFRRNNGTLVVQSLHGVFKVKDTTTLQQHLVDGRDMIIIRMPKDFPPFPQKLKFREPQREERICLVTTNFQTKSMSSMVSDTSCTFPSGDGIFWKHWIQTKDGQCGSPLVSTRDGFIVGIHSASNFTNTNNYFTSVPKNFMELLTNQEAQQWVSGWRLNADSVLWGGHKVFMVKPEEPFQPVKEATQL [N24V]	0.0654	0.0629	0.068	0.0603	0.0637	0.0683	0.0653	0.0537	0.0619	0.0573	0.0661	–	0.0601	0.0596	0.0647	0.0677	0.057	–	–
MGESLFKGPRDYNPISSSICHLTGESDGHTTSLYGIGFGPFIITNKHLFRRNNGTLVVQSLHGVFKVKDTTTLQQHLVDGRDMIIIRMPKDFPPFPQKLKFREPQREERICLVTTNFQTKSMSSMVSDTSCTFPSGDGIFWKHWIQTKDGQCGSPLVSTRDGFIVGIHSASNFTNTNNYFTSVPKNFMELLTNQEAQQWVSGWRLNADSVLWGGHKVFMVKPEEPFQPVKEATQL [N24G]	0.0638	0.0628	–	0.0586	0.0609	0.0543	0.0596	0.0625	0.0661	0.0542	0.0648	0.114	0.0625	0.0569	0.0591	0.0649	0.0643	0.0643	0.0513
MGESLFKGPRDYNPISSSICHLTNISDGHTTSLYGIGFGPFIITNKHLFRRNNGTLVVQSLHGVFKVKDTTTLQQHLVDGRDMIIIRMPKDFPPFPQKLKFREPQREERICLVTTNFQTKSMSSMVSDTSCTFPSGDGIFWKHWIQTKDGQCGSPLVSTRDGFIVGIHSASNFTNTNNYFTSVPKNFMELLTNQEAQQWVSGWRLNADSVLWGGHKVFMVKPEEPFQPVKEATQL [E25I]	0.0631	0.0883	–	0.0545	0.0153	0.0763	0.0609	0.0577	–	0.0566	0.0529	0.0822	0.0613	0.0585	0.0585	–	–	–	0.0562
MGESLFKGPRDYNPISSSICHLTNCSDGHTTSLYGIGFGPFIITNKHLFRRNNGTLVVQSLHGVFKVKDTTTLQQHLVDGRDMIIIRMPKDFPPFPQKLKFREPQREERICLVTTNFQTKSMSSMVSDTSCTFPSGDGIFWKHWIQTKDGQCGSPLVSTRDGFIVGIHSASNFTNTNNYFTSVPKNFMELLTNQEAQQWVSGWRLNADSVLWGGHKVFMVKPEEPFQPVKEATQL [E25C]	0.0499	0.055	0.0745	0.05	0.0647	0.0798	0.0695	0.055	0.057	0.0618	0.0441	0.141	0.0556	0.0718	0.0582	–	0.0485	0.0601	0.0052
